Experimental data reported in patent publication US20230183366A1 (INSERM INSTITUT NATIONAL DE LA SANT ET DE LA RECHERCH M …, published 2023).

Target: T1, human OX40 on primed human CD4+ T cells (human, UniProt P43489 29-277)
T1 sequence (looked up): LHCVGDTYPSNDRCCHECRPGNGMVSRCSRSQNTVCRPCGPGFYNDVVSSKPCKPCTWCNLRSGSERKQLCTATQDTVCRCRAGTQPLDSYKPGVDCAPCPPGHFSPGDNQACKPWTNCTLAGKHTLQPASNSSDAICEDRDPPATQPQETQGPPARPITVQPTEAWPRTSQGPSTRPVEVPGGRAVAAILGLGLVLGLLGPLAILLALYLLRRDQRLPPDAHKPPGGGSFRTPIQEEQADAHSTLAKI
Test: cell-based or functional assay

- potency in the CD4+ T cell proliferation and cytokine assay, relative to OX40L IgG1: > 2 logs
B1: anti OX40 Ab24-OX40L fusion IgG1 (other)
heavy: QVQLQESGPGLVKPSQTLSLTCAVYGGSFSSGYWNWIRKHPGKGLEYIGYISYNGITYHNPSLKSRITINRDTSKNQYSLQLNSVTPEDTAVYYCARYKYDYDGGHAMDYWGQGTLVTVSSASTKGPSVFPLAPCSRSTSGGTAALGCLVKDYFPEPVTVSWNSGALTSGVHTFPAVLQSSGLYSLSSVVTVPSSSLGTQTYICNVNHKPSNTKVDKRV[human IgG1 Fc and a few adjoining residues left out]
light: DIQMTQSPSSLSASVGDRVTITCRASQDISNYLNWYQQKPGKAPKLLIYYTSKLHSGVPSRFSGSGSGTDYTLTISSLQPEDFATYYCQQGSALPWTFGQGTKVEIKRTVAAPSVFIFPPSDEQLKSGTASVVCLLNNFYPREAKVQWKVDNALQSGNSQESVTEQDSKDSTYSLSSTLTLSKADYEKHKVYACEVTHQGLSSPVTKSFNRGECASQTPTNTISVTPTNNSTPTNNSNPKPNPASHFSALQVSHRYPRIQSIKVQFTEYKKEKGFILTSQKEDEIMKVQNNSVIINCDGFYLISLKGYFSQEVNISLHYQKDEEPLFQLKKVRSVNSLMVASLTYKDKVYLNVTTDNTSLDDFHVNGGELILIHQNPGEFCVLAS
